# Hit rate of the full screen: of about 400,000 compounds, about 2,200 (0.55%) were called active. Roughly 1% stayed inconclusive and do not appear here. The call rests on the fitted dose curve; in most records, active means well fitted inhibition curve with a large enough effect; inconclusive means small, poorly fitted or top-dose-only effect, or another doubt; inactive means no such curve, though single readings can be large or run the other way. This is a selection; strong and weak results do not stand in their true shares. More than one record can exist for a structure, and the calls need not agree.
# Target: DNA polymerase kappa (Homo sapiens) (UniProt Q9UBT6)
# Chain of UniProt Q9UBT6 (Q9UBT6 whole entry, looked up): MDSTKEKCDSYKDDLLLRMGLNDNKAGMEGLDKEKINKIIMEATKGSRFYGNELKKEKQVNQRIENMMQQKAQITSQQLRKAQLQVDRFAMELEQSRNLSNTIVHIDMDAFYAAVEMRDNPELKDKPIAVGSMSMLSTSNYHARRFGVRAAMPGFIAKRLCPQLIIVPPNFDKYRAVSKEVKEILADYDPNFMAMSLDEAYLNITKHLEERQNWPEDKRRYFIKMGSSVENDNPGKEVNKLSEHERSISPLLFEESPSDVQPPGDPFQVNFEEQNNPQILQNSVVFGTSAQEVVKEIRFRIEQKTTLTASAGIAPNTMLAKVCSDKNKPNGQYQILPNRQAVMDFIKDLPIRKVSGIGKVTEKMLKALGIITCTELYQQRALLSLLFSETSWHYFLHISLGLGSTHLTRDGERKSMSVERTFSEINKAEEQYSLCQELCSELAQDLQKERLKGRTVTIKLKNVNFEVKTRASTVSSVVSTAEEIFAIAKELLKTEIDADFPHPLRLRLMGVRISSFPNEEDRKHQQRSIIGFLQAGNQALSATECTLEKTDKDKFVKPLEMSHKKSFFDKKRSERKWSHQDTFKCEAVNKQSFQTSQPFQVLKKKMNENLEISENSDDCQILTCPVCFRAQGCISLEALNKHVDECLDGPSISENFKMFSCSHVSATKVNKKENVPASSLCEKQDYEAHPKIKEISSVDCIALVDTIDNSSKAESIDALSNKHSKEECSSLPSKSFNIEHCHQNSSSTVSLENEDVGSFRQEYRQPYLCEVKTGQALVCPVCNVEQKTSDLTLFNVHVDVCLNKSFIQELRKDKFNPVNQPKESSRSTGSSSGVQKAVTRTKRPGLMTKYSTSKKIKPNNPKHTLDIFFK
# Assay: qHTS for Inhibitors of Polymerase Kappa
# Conditions: purified Pol kappa, fluorescent DNA synthesis assay, 10 min; series mostly up to 107 µM; activity, negative = inhibition: at the top concentration
# Protocol: The processing and repair of DNA interstrand crosslinks (ICL) in eukaryotic cells are extremely complex, potentially involving multiple DNA repair and damage tolerance pathways, including homologous recombination, nucleotide excision repair, translesion synthesis (TLS), and cell cycle checkpoints.
# To that end, in a collaboration between the Oregon Health & Science University and the NIH Chemical Genomics Center a 1536-well high-throughput screen was developed. This fluorescent screen was assayed against the NIH Molecular Libraries Small Molecule Repository (MLSMR) to discover inhibitors of Pol Kappa.
# NIH Chemical Genomics Center [NCGC]
# NIH Molecular Libraries Probe Centers Network [MLPCN]
# Assay Submitter (PI): Stephen Lloyd, Oregon Health & Science University
# Three microliters of reagents (buffer in column 3 and 4 as negative control and 10 nM Pol kappa in columns 1, 2, and 5-48) were dispensed into a 1536-well black solid-bottom plate. Compounds (23 nL) were transferred via Kalypsys pin tool equipped with 1536-pin array. The plates were then incubated for 15 min at room temperature, and 1 uL substrate (50 nM final concentration) were then added to start the reaction and kinetically read twice at 0 min and 10 min on the Viewlux reader
# On the % scale 0 is the no-effect control and ±100 the full control effect; potency means the concentration at half of the fitted maximal effect.
Compound,Potency,"activity, negative = inhibition"
Cc1oc(-c2ccc(F)cc2)cc1-c1nn2c(-c3ccoc3C)nnc2s1,active: 28.2 µM,
CC(=O)C1(O)CCC2C3CC(C)C4=CC(=O)C=CC4(C)C3(F)C(O)CC21C (centres undefined),,inactive: -12.6%
CCn1c(SCC(=O)c2ccc(O)c(O)c2)nnc1-c1ccc(C)cc1,active: 28.2 µM,
CN(C)C(=O)Nc1ccccc1,inactive,
O=C(/C=C/c1ccco1)Oc1cccc2cccnc12,,inactive: -9.76%
Clc1ccc(C[n+]2cc(-c3ccccc3)n3c2CCCCC3)c(Cl)c1,inactive,
NC12CC3CC(CC(C3)C1)C2,inactive,
CCN(c1ccc(OC)cc1)S(=O)(=O)c1nnc(NC(=O)COc2ccc(F)cc2)s1,,inactive: 1.16%
CC(C)(C)OC(=O)N1CCC[C@@H]1CO,inactive,
O=c1cc(-c2ccc(O)cc2)oc2c(C3OCC(O)C(O)C3O)c(O)c(C3OC(CO)C(O)C(O)C3O)c(O)c12 (centres undefined),active: 50.1 µM,
Cc1cccc(CN2C[C@]34CC[C@@H](C[C@@H]3S2(=O)=O)O4)c1,,inactive: -5.04%
COc1ccc(/C=C/C(=O)CC(=O)/C=C/c2cccc(O)c2OC)cc1O,,inactive: -8.75% [at 19.4 µM]
NCCCCNCCCN,inactive,
Cc1ccc(CCNC(=O)c2c3c(nc4ccccc24)C(=O)N(C2CCCCC2)C3)cc1,,inactive: 22.8%
N[C@H](CO)C(=O)O,inactive,
COc1ccc(-c2nc(SCC(=O)Nc3ccc4c(c3)OCCO4)c(-c3ccc(F)cc3)[nH]2)cc1OC,,inactive: 45.1%
O=c1cc(N2CCOCC2)oc2c1ccc1ccccc12,,inactive: 18.2% [at 60.1 µM]
CCOC(=O)C(CCc1ccccc1)NC(C)C(=O)N1Cc2cc(OC)c(OC)cc2CC1C(=O)O (centres undefined),,inactive: 16.1% [at 60.1 µM]
CN(Cc1ccco1)S(=O)(=O)c1nnc(NC(=O)c2ccccc2)s1,,inactive: 5.28%
C[C@@H]1[C@H](O)[C@@H](C)/C=C/C=C/C=C/C=C/C=C/C=C/C=C/[C@H](O[C@@H]2O[C@H](C)[C@@H](O)[C@H](N)[C@@H]2O)C[C@@H]2O[C@](O)(C[C@@H](O)C[C@@H](O)[C@H](O)CC[C@@H](O)C[C@@H](O)CC(=O)O[C@H]1C)C[C@H](O)[C@H]2C(=O)O,,inactive: -15.4% [at 60.1 µM]
CC(O)CC(=O)O (centres undefined),,inactive: -2.89%
COc1ccc(N2CCN(C(=O)Cc3ccc(S(=O)(=O)N4CCOCC4)s3)CC2)cc1,active: 79.4 µM,
C[C@]12CC[C@@H]3c4ccc(O)cc4CC[C@H]3[C@@H]1CC[C@@H]2OC(=O)CCC1CCCC1,,inactive: 0.386%

Compound,Potency,"activity, negative = inhibition"
CN1CCN(C2=Cc3ccccc3Oc3ccc(Cl)cc32)CC1,,inactive: 1.43% [at 19.4 µM]
N=C(C[C@@H](O)COc1ccccc1-c1ccccc1)N1CCCCC1,,inactive: -7.46% [at 19.4 µM]
Oc1ccc(C[C@@H]2CNCCN2CCc2cc(C(F)(F)F)cc(C(F)(F)F)c2)cc1,,inactive: -12.6%
COC(=O)[C@H]1C2CC3c4[nH]c5ccccc5c4CCN3CC2CC[C@@H]1O (some centres undefined),,inactive: -0.321% [at 19.4 µM]
CCC(Cc1c(I)cc(I)c(N)c1I)C(=O)O (centres undefined),inactive,
OCC1=C[C@@H](O)[C@@H]2C=CO[C@@H](O[C@@H]3O[C@H](CO)[C@@H](O)[C@H](O)[C@H]3O)[C@H]12,,inactive: -16.9%
O=c1ccc2ccccc2[nH]1,,inactive: 13% [at 60.1 µM]
H-HSDAIFTQQYSKLLAKLALQKYLASILGSRTSPPP-NH2,,inactive: 11.6% [at 60.1 µM]
CCOC(=O)C1=C(O)/C(=C\c2ccc(CNS(=O)(=O)c3ccc(Br)cc3)o2)N=C1C,active: 50.1 µM,
Cc1cc(C)cc(NC(=O)C2CCCN2S(=O)(=O)c2ccc3c(c2)C(C)(C)C(=O)N3C)c1 (centres undefined),,inactive: -5.66%
CC(=O)Nc1ccc(S(=O)(=O)O)c2cc(S(=O)(=O)O)c(N=Nc3ccc(N=Nc4ccc(S(=O)(=O)O)cc4)c4ccc(S(=O)(=O)O)cc34)c(O)c12,active: 1.41 µM,
CC(=O)NO,,inactive: 2.36%
O=C1ON=C(c2ccccc2)/C1=C/c1ccco1,active: 28.2 µM,
CC(=O)N[C@@H](CC(=O)O)C(=O)O,,inactive: -5.11% [at 12 µM]
CCCCCCCCCCC[C@@H](C[C@@H]1OC(=O)[C@H]1CCCCCC)OC(=O)[C@H](CC(C)C)NC=O,,inactive: -0.356%
Cc1cc(C(=O)O)ccc1-c1ccc(/C=C2\NC(=O)N(Cc3ccc(F)cc3)C2=O)o1,active: 28.2 µM,
C=C1C(=O)O[C@@H]2[C@H]3O[C@]3(C)CC/C=C(\C)CC[C@@H]12,inactive,
C[C@H]1CCC(=O)N([C@H](CC#N)Cc2ccccc2)CC1,,inactive: 4.82%
Cc1cccc(C)c1NC(=O)C1CCCCN1C (centres undefined),,inactive: -2.69% [at 60.1 µM]
NC(N)=NCCNS(=O)(=O)c1cccc2cnccc12,inactive,
Cc1nnc(NS(=O)(=O)c2ccc(N=Nc3ccc(N)nc3N)cc2)s1,active: 79.4 µM,
CCN(CC)CCCNc1ccc2ncn3c4ccc(O)cc4c(=O)c1c23,active: 79.4 µM,
O=C(NCc1ccccc1)C1(C(F)(F)F)C/C(=C\CCO)CCCO1 (centres undefined),,inactive: 19.5%

Compound,Potency,"activity, negative = inhibition"
C=CCn1c(SCC(=O)c2ccc(O)c(O)c2)nnc1-c1cccc(Cl)c1,active: 39.8 µM,
COc1ccc(COc2cc(-c3cccc(OC)c3)nc3ccc(NC(=O)c4ccccc4)cc23)cc1,,inactive: -0.765%
NC(=O)Cn1c(=O)n(Cc2ccco2)c(=O)c2c3c(sc21)CCCCC3,active: 25.1 µM,
O=C(CC1Nc2cccc3cccc(c23)NC1=O)Nc1ccc(F)cc1 (centres undefined),,inactive: -4.37%
CC[C@H](C)[C@H](NC(=O)[C@H](CC(N)=O)NC(=O)[C@H](CCCCN)NC(=O)[C@H](Cc1ccccc1)NC(=O)[C@H](Cc1ccccc1)NC(=O)[C@H](Cc1cnc[nH]1)NC(=O)[C@@H](N)C(C)C)C(=O)N[C@H](C(=O)N[C@H](C(=O)N1CCC[C@H]1C(=O)N[C@@H](CCCN=C(N)N)C(=O)N[C@H](C(=O)N1CCC[C@H]1C(=O)O)[C@@H](C)O)[C@@H](C)O)C(C)C,,inactive: 12% [at 60.1 µM]
CCc1ccccc1NC(=O)CC(C)n1nc(C)cc1C (centres undefined),,inactive: 36%
O=[N+]([O-])c1ccc(Cn2cc(-c3cccc(C(F)(F)F)c3)nn2)cc1,,inactive: -6.67%
CC(C)n1c(SCC(=O)Nc2nncs2)nnc1-c1ccco1,active: 79.4 µM,
O=C1NCN(c2ccccc2)C12CCN(CCCC(c1ccc(F)cc1)c1ccc(F)cc1)CC2,inactive,
COC(=O)C[C@H]1c2cc(F)ccc2S(=O)(=O)N1Cc1ccccc1OC,,inactive: -16.3%
CCc1cccc(C)c1NC(=O)Cn1nc(C)n2cccc2c1=O,,inactive: 8.63%
OC[C@H]1OC(O)[C@H](O)[C@@H](O)[C@H]1O (some centres undefined),inactive,
Cc1cccc(NC(=O)CSc2nnc(-c3ccco3)c(-c3ccco3)n2)c1,active: 79.4 µM,
Cn1c(SCC(=O)c2cc(Cl)c(Cl)s2)nnc1-c1ccco1,active: 31.6 µM,
Cc1ccc(/C=c2\sc3nc(-c4ccccc4Br)nn3c2=O)o1,active: 20 µM,
N=C1/C(=C\c2ccc(SCc3ccco3)o2)C(=O)N=C2SC=NN12,active: 50.1 µM,
Oc1cccc(/C=N/N=C/c2cccc(O)c2O)c1O,active: 11.2 µM,
COc1cc(CCc2ccccc2)c(C(=O)O)c(O)c1C/C=C(/C)CCC=C(C)C,active: 79.4 µM,
COc1ccccc1C1CC(=O)Oc2cc(C)c(Cl)c(C)c21 (centres undefined),,inactive: -19.8%
COc1ccc2ccc(=O)oc2c1,,inactive: 1.04%
C#CCNC(=O)C1=C[C@@H](c2ccc(C#C)cc2)C[C@@H](OCc2ccc(CO)cc2)O1,,inactive: -4.42%
Cc1ccc(CN2C(=O)N/C(=C\c3cccn3-c3cccc(C(=O)O)c3)C2=O)cc1,active: 50.1 µM,
O=C1CSC(=S)N1/N=C/c1cc(Br)c(O)c(Br)c1,active: 15.8 µM,

Compound,Potency,"activity, negative = inhibition"
COc1ccc(-c2cc(=O)c3ccc(O)cc3o2)cc1,inactive,
CCOC(=O)[C@@H]1[C@H]2COc3ccccc3[C@@H]2N2C(=O)N(c3ccc(F)cc3)C(=O)[C@]12C,,inactive: -9.32%
CC(C)(C)OC(=O)N[C@@H](Cc1c[nH]c2ccccc12)C(=O)O,,inactive: 12.5% [at 60.1 µM]
COC1=CC(=Cc2c(N)n3nc(CC(=O)N4CCOCC4)sc3nc2=O)C=C(OC)C1=O,active: 79.4 µM,
COc1ccc(C2=Nn3c(nnc3-c3ccccc3OC)SC2)cc1OCC1CC1,active: 39.8 µM,
CCc1ccc(/C(C)=N/NC(=O)CNC(=O)/C=C/c2ccco2)cc1,active: 31.6 µM,
COc1ccc(/C=N/NC(=O)c2nn(-c3ccccc3)c(=O)c3c(N)scc23)cc1,active: 35.5 µM,
COc1ccc2cc([C@@H](C)C(=O)O)ccc2c1,,inactive: -11.9%
COc1ccc(NC(=O)CN(C)C(=O)c2cccc(-n3cccc3)c2)cc1,active: 44.7 µM,
O=C1OCCN1C(=O)[C@H]1[C@H](c2ccc([N+](=O)[O-])cc2)C(c2cccc(Cl)c2)=NN1c1ccc(Br)cc1,,inactive: 1.41%
COC(=O)[C@@H]1[C@H]2C[C@H]3c4[nH]c5ccccc5c4CCN3C[C@@H]2CC[C@@H]1O,inactive,
CC(C)C[C@H](NC(=O)[C@H]1O[C@@H]1C(=O)O)C(=O)NCCCCN=C(N)N,,inactive: 17.6% [at 60.1 µM]
COc1cccc(N2CCN(C(=O)CCS(=O)(=O)c3ccc4c(c3)oc(=O)n4C)CC2)c1,,inactive: -11.8%
CSCCOC(=O)c1[nH]c2c(c1C)C(=O)CC(c1ccco1)C2 (centres undefined),active: 31.6 µM,
Oc1ccc2c(c1)OCC1(O)Cc3cc(O)c(O)cc3C21 (centres undefined),,inactive: 0%
O=C1OCCN1C(=O)[C@H]1[C@H](c2ccc([N+](=O)[O-])cc2)C(c2ccc(F)cc2)=NN1c1ccc(Br)cc1,,inactive: -13.5%
C[C@H](NC(=O)Cc1cc(F)cc(F)c1)C(=O)N[C@@H](C(=O)OC(C)(C)C)c1ccccc1,,inactive: 16.8% [at 60.1 µM]
CCCCCCCC/C=C\CCCCCCCC(=O)NCCc1ccc(O)c(O)c1,,inactive: -14.3%
CC(C)(C)c1ccc([C@@H](O)CCCN2CCC(C(O)(c3ccccc3)c3ccccc3)CC2)cc1,,inactive: -7.96% [at 12 µM]
O=C(O)[C@@H]1CCCN1,,inactive: -5.46% [at 60.1 µM]
